The RNAGym collection of RNA variant scans (doi:10.7554/elife.90254)
Read counts are not given, so values of variants with three or more changes are uncertain.

B1: LINE1-mini (parent)
chain: GGCAGAGCUCAACACAGCGUGGCAAAGUGGCUGUGGCUAGACUGCC

Variants of: B1
Assay: self-cleavage, relative activity (ratio to wild type); higher = more cleavage; in vitro, sequencing; the parent is a self-cleaving ribozyme

Variant	self-cleavage
C10U A16C C23G	0.02
C10G U34G G35A	0.01
C10U C13U U32A G40A	0.02
C10G U32C G36A A41G	0.02
C10U C18G C23U G29C C31U	0.04
C10G C13A A26U G27U U43G	0
C10A G40U C46G	0.01
C10U A14G C15U G19A	0.04
C10G C31U G36A U43C	0
C10A G27C A41U	0
C10G A26U C42U	0.01
C10G G19C U43C	0.02
C10U A12C A25G G30A	0.01
C10G G19U A41C	0.03
C10G G19U U20A C42G	0
C10U A12G C23G A24C G27A G33A C37U	0
C10A U28A G35C	0.01
C10A C37U G44C C46G	0
C10U A16U U20A U43A	0
C10G C18U G44C	0.11
C10U C13A A25G A41G	0.02
C10U A14G G30A C46U	0.11
C10G C13U A39C	0.03
C10G G22U C31G	0.01

Variant	self-cleavage
C10U A12G G27U U34C	0.02
C10A U34A G35A	0.06
C10A G17A G30A	0.04
C10A G29A C45U	0.05
C10G A11C C13U C31U U32C G36U C42G	0.01
C10U C23G G36C G44U	0.02
C10U A11C U34G G44C	0
C10U C42A C45A	0.01
C10U C18U C45U	0.96
C10U G17A A26U G36C	0.04
C10A G21U G27A U34A G36C	0.01
C10G G19A C23A C37U A39C	0
C10A G19A C23U A24C	0.01
C10G G17U G27A C31A U32G G40C	0.01
C10A U28A G44U	0
C10G G40C C42U	0
C10G A11G C45A	0
C10A G19U U32C G40C	0.01
C10G G22C U38G G40A U43G	0
C10A U20C G21U C45A	0.02
C10G U34A G35U G36U	0.02
C10G G17C C23G	0.08
C10U A12G C23G G33U C42G	0.01
C10G A25U U32G G36C C37U	0.02

Variant	self-cleavage
C10G A11G G19U G29U	0.01
C10A G27U G40U	0.05
C10A G21U G30A G35A	0.03
C10U C13U A25C G27A	0.07
C10U C18U A26U	0.11
C10G G19U G33U G35A C46A	0.01
C10G G17A C18A U32C	0.06
C10A G22A G36U	0.02
C10G G22U U28C	0.07
C10G A14C G19U A24C G35A	0.01
C10G G21U G22A G27C G35A C46G	0.02
C10G G27A G40A	0.01
C10U A25G G29C A41G	0.02
C10A G21C G22A G27C G33U	0
C10U A12U G22C	0.08
C10A G21U G36A	0
C10U C18U U20A	0.32
C10G G21U U43A	0
C10U C18U U32A	0.04
C10U C13U A14U C46A	0.11
C10G C13A G19A U28A U32C C45U	0.02
C10U C23G U28C U34A G35A A39C	0
C10G A11C C15U A24C U38G	0.02
C10G A11C A26C G35U C37U G40U	0

Variant	self-cleavage
C10U C13G C18A C23U	0.06
C10A G21U A41C	0.01
C10A G30U U32G G44C	0.02
C10U A26U A41C G44A	0.02
C10G G40U C46A	0.01
C10U C15U G30U	0.08
C10G A24G G27C	0.29
C10A C37A C45G	0.01
C10G A16C G40U C45G	0.01
C10A G27A G33C	0.03
C10A G27A G33A	0.03
C10G C13A G33U C45U	0.01
C10U A12G C13U G19A	0.05
C10A G17C A24U	0.03
C10A U20A G22U C23A G36U	0.01
C10A G21A U28A G40A	0
C10U C23G G36A C46A	0.05
C10G U32C C37A	0.02
C10G G19U U28G A39U	0.17
C10A G33U C45G	0.01
C10G G19U U32G	0.02
C10A G21U G29U	0.02
C10G C15G C31A G36C	0.03
C10A G22C G36A	0.05

Variant	self-cleavage
C10A C37G U43C	0
C10A G19A C23U G27C G33U	0.01
C10A G35U G36U A41U	0.01
C10G G19C A39U C42G	0.02
C10A G22U A24C	0.04
C10U A14G G27U C31G	0.04
C10A U20G G30U	0.01
C10U A26G U28C C37A	0
C10G G17A U20C G22U	0.54
C10U A25C C42A	0.04
C10G A24C C42U	0.04
C10U C13G A24U U28C	0.03
C10G A14C C15A U28G U32G C46G	0.02
C10A G19U C23U A24C	0
C10G G27C A41U	0.02
C10A G19A G22U A26C A41C C45A	0.02
C10G G19A G36C U38A	0.02
C10G A25G G27U	0.01
C10A G35A U38C	0.02
C10U A11G A12G G21U G30C C42A	0
C10G C18A A24C U28G C37A	0.01
C10A G33U U38G G44U C45A	0.03
C10U A26U G29C G30C G40A	0.02
C10U A24G G27C	0.06

Variant	self-cleavage
C10U A24G G27U	0.06
C10G A14G C15U G22U G36C	0
C10U A14C C18A G27U	0.04
C10A G29C G30U	0.02
C10G G19U C37U C46U	0.01
C10G G21C A24U C37U	0.01
C10G A14U G19C	0.01
C10U C13U G17A U20G A26C U28G	0.03
C10A G19A U38A	0.09
C10G U20G A39G G40U	0.01
C10A G19U U20A	0.01
C10G A11U C15U	0
C10G A14C G22C A41G	0
C10U A26C C46G	0.62
C10A G36U A39C	0.01
C10U A14U U38A	0.03
C10A G17C G27A	0.03
C10G A11C A24C A26G C45G C46A	0.01
C10G C15G G27C U32A	0.02
C10G A14G U34G	0.15
C10A G29A U43A	0.01
C10U C15G G21C U43C	0
C10U A12U U32G G36U	0.01
C10A G22U G29U G33A G36U	0.01

Variant	self-cleavage
C10G A11C G22C	0.02
C10G A16U G22A G30A U34A	0.01
C10A G17C U28C U34C	0
C10U C18A U20A G30C A39G	0.02
C10A G17U G44C	0.03
C10A U20C G27U	0.04
C10A G17U G33U	0.01
C10U C15U C37U A39C	0.03
C10U A16C G27U C45U	0.06
C10G G30U C37A C46A	0.01
C10U C42A U43G	0.03
C10G G17U C23U	0.05
C10A U20G G22A	0.04
C10G C13U U20A	0
C10U C13A G36U	0.05
C10U A12C G40A	0.01
C10G A11C G19U C23U G29C U34G	0.01
C10A G17U G35U G44C	0.01
C10A G19C G30C C42A	0.01
C10U C15U G29C	0.5
C10U A12G U32C	0.02
C10U C31U G40C	0.05
C10G A25G C42U	0.01
